Test results as given in patent US20260217767A1, “NOVEL A4B7 THIOETHER PEPTIDE DIMER ANTAGONISTS” (Protagonist Therapeutics, Inc., priority 2014, published 2026).
Like-named read-outs stand apart in the source and are kept apart here. At least one peptide structure holds a part that was inferred or is arguable (an end, a ring closure or a residue). For at least one compound, name, drawing or mass did not settle the structure. Where a SMILES comes first, the peptide text is derived from it.

Experiments:
[1] = target: T1, rh integrin α4β7 (Homo sapiens, UniProt P13612+P26010); assay: α4β7-MAdCAM Competition ELISA; format: binding; conditions: read-out: ELISA A4B7
T1 construct: purchased R&D Systems 5397-A30
T1 sequence (P13612 34-977 limits assumed): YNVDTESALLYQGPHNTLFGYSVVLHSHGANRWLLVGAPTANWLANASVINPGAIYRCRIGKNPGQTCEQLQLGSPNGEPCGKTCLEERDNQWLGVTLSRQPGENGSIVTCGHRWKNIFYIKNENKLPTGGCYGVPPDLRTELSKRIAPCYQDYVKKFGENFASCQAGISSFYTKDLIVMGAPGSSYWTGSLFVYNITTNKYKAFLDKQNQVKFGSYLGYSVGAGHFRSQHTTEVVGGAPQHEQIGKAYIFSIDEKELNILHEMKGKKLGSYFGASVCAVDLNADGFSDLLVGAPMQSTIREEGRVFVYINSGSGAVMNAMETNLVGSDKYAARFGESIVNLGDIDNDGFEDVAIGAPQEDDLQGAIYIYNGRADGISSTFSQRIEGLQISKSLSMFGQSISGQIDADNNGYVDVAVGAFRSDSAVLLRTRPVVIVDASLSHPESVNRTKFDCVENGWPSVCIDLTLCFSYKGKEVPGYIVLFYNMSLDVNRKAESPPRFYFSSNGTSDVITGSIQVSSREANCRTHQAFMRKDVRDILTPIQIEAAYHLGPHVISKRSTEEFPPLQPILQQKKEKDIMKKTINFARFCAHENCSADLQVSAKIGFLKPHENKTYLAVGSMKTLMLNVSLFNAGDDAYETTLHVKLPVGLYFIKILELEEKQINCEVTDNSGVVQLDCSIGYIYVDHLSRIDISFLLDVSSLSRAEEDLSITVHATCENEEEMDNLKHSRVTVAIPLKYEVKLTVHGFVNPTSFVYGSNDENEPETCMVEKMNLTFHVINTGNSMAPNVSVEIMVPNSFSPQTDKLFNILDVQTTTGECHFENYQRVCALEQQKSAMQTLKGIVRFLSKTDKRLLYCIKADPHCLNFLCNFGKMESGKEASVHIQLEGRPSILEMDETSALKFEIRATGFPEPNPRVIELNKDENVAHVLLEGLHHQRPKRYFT
T1 sequence (P26010 20-723 limits assumed): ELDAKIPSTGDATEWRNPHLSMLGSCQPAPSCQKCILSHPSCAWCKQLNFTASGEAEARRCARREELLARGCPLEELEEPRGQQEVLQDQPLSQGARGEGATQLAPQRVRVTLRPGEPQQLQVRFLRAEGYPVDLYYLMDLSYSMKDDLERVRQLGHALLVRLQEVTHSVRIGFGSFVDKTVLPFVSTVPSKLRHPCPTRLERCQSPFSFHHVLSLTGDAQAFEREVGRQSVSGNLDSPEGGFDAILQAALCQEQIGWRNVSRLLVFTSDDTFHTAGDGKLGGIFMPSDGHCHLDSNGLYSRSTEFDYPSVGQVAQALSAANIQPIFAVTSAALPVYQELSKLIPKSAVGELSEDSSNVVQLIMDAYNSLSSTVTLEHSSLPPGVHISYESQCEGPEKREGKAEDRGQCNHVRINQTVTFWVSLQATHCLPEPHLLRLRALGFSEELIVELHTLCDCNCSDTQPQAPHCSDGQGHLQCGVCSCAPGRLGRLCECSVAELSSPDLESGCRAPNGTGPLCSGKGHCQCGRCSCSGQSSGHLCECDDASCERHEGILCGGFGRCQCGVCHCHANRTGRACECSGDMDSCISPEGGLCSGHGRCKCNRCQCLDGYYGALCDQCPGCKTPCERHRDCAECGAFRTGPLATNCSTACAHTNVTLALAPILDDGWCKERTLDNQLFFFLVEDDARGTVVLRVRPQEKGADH
Description: α4β7-MAdCAM Competition ELISA A nickel coated plate (Pierce #15442) was coated with rh integrin α4β[…] Systems #5397-A30) at 800 ng/well and incubated at room temperature with shaking for 1 hr. The solution was then removed by shaking and blocked with assay buffer (50 mM Tris-HCl pH7.6, 150 mM NaCl, 1 mM MnCl2 or MgCl2, 0.05% Tween-20 and 0.5% BSA) at 250 ul/well. The plate was then incubated at room temperature for 1 hr. Each well was washed 3 times with wash buffer (50 mM Tris-HCl pH7.6, 100 mM NaCl, 1 mM MnCl2 or MgCl2, 0.05% Tween-20). To each well was added 25 ul of a serial dilution (3-fold dilutions in assay buffer) of peptides starting at 20 μM. 25 ul of recombinant human MAdCAM-1 (R&D Systems #6056-MC) was then added to each well at a fixed concentration 20 nM. The final starting peptide concentration was 10 μM, and the final MAdCAM-1 concentration was 10 nM. The plates were then incubated at room temperature for 1 hr to reach binding equilibrium. The wells were then washed three times with wash buffer. 50 ul of mouse anti-human IgG1-HRP (Invitrogen #A10648) diluted in 1:2000 in assay buffer was then added to each well. The wells were incubated at room temperature for 45 min with shaking. The wells were then washed 3 times with wash buffer. 100 ul of TMB were then added to each well and closely observe during development time. The reaction was stopped with 2N H2SO4 and absorbance was read at 450 nm.

[2] = target: T2, α4β1 (Homo sapiens, UniProt P05556+P13612); assay: α4β1-VCAM Competition ELISA; format: binding; conditions: read-out: ELISA A4B1
T2 construct: purchased R&D Systems 5668-A4
T2 sequence (P05556 21-728 limits assumed, one chain of several): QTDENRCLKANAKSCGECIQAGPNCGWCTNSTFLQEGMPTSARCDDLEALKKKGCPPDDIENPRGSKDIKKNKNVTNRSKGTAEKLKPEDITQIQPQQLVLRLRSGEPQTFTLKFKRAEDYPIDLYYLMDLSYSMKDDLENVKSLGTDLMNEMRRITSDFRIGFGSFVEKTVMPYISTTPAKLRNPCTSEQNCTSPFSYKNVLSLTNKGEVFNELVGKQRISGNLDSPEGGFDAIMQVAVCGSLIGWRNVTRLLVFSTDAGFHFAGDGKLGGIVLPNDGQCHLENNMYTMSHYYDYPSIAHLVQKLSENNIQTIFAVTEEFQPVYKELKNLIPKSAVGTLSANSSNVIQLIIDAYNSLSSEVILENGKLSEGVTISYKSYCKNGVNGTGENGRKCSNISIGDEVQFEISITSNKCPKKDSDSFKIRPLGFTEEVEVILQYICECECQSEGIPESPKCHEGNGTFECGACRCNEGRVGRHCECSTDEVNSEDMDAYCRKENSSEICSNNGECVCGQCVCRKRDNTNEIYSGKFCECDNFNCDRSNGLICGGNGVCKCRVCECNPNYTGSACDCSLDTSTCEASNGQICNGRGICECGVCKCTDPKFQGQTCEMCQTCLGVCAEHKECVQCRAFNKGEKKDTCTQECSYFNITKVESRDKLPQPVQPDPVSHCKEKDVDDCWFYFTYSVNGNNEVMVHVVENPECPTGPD
Description: α4β1-VCAM Competition ELISA
A Nunc MaxiSorp plate was coated with rh VCAM-1/CD106 Fc chimera (R&D #862-VC) at 400 ng/well in 50 ul per well in 1×PBS and incubated overnight at 4° C. The solution was removed by shaking and then blocked with 250 ul of 1% BSA in 1×PBS per well. The wells were then incubated at room temperature for 1 hr with shaking. Each well was then washed once with wash buffer (50 mM Tris-HCl pH7.6, 100 mM NaCL, 1 mM MnCl2 or MgCl2, 0.05% Tween-20). 25 ul of serial dilutions of peptides starting at 200 μM in assay buffer (Assay buffer: 50 mM Tris-HCl pH7.6, 100 mM NaCl, 1 mM MnCl2 or MgCl2, 0.05% Tween-20) was added to each well. Additionally, 25 μl of α4β1 (R&D Systems #5668-A4) was added to each well at a fixed concentration of 120 nM. The final peptide and α4β1 concentrations were 100 μM and 60 nM, respectively. The plates were then incubated at 37° C. for 2 hr. The solution was then removed by shaking and each well was washed three times with wash buffer. 50 ul of 9F10 antibody at 4 ug/ml (purified mouse anti-human CD49d, BD Bioscience Cat #555502) was then added to each well, and the plate was incubated at room temperature for Ihr with shaking. The solution was again removed by shaking, and each well was washed three times with wash buffer. 50 μl of peroxidase-conjugated AffiniPure Goat anti-mouse IgG (Jackson immune research cat #115-035-003) diluted in 1:5000 in assay buffer was added to each well. The plate was incubated at room temperature for 30 min with shaking. Each well was then washed 3 times with wash buffer. 100 ul of TMB was then added to each well and closely observe during developing time. The reaction was stepped with 2N H2SO4 and absorbance was read at 450 nm.

[3] = thioether monomer peptides, Table 6
[4] = thioether peptide dimers, Table 7
[5] = control peptide monomers, Table 8

SMILES: CC(C)C[C@@H]1NC(=O)[C@H]([C@@H](C)O)NC(=O)[C@H](CC(=O)O)NC(=O)[C@H](CO)NC(=O)[C@H](CCCNC(=N)N)N(C)C(=O)CCCSC[C@@H](C(=O)N[C@@H](Cc2c[nH]c3ccccc23)C(=O)N[C@H](CCCCN)C(N)=O)NC1=O [compound 58]
- IC50 [1, 3]: > 1000 nM

SMILES: CC(C)C[C@@H]1NC(=O)[C@H]([C@@H](C)O)NC(=O)[C@H](CC(=O)O)NC(=O)[C@H](CO)NC(=O)[C@H](CCCNC(=N)N)N(C)C(=O)c2ccccc2CSC(C)(C)[C@@H](C(=O)N[C@@H](Cc2c[nH]c3ccccc23)C(=O)N[C@H](CCC(=O)O)C(=O)N[C@H](CCCCN)C(N)=O)NC1=O [compound 60] (HELM PEPTIDE1{[meR].S.D.T.L.[Pen].W.[dE].[dK].[am]}|CHEM1{[O=C(c1ccccc1C[*:2])[*:1]]}$PEPTIDE1,CHEM1,1:R1-1:R1|PEPTIDE1,CHEM1,6:R3-1:R2$$$V2.0)
- IC50 [1, 3]: < 25 nM
- IC50 [2, 3]: 100 to 1000 nM

SMILES: CC(C)C[C@@H]1NC(=O)[C@H]([C@@H](C)O)NC(=O)[C@H](CC(=O)O)NC(=O)[C@H](CO)NC(=O)[C@H](CCCNC(=N)N)N(C)C(=O)c2ccccc2CSC(C)(C)[C@@H](C(=O)N[C@@H](Cc2c[nH]c3ccccc23)C(=O)N[C@@H](Cc2ccc(O)cc2)C(=O)N(C)[C@@H](CCCCN)C(N)=O)NC1=O [compound 63] (HELM PEPTIDE1{[meR].S.D.T.L.[Pen].W.Y.[meK].[am]}|CHEM1{[O=C(c1ccccc1C[*:2])[*:1]]}$PEPTIDE1,CHEM1,1:R1-1:R1|PEPTIDE1,CHEM1,6:R3-1:R2$$$V2.0)
- IC50 [1, 3]: < 25 nM

SMILES: CCCC[C@@H]1NC(=O)[C@H]([C@@H](C)O)NC(=O)[C@H](CC(=O)O)NC(=O)[C@H](CO)NC(=O)[C@H](CCCNC(=N)N)N(C)C(=O)c2ccccc2CSC(C)(C)[C@@H](C(=O)N[C@@H](Cc2c[nH]c3ccccc23)C(=O)N[C@@H](CCC(=O)O)C(=O)N[C@H](CCCCN)C(N)=O)NC1=O [compound 64] (HELM PEPTIDE1{[meR].S.D.T.[Nle].[Pen].W.E.[dK].[am]}|CHEM1{[O=C(c1ccccc1C[*:2])[*:1]]}$PEPTIDE1,CHEM1,1:R1-1:R1|PEPTIDE1,CHEM1,6:R3-1:R2$$$V2.0)
- IC50 [1, 3]: < 25 nM

SMILES: CC(C)C[C@@H]1NC(=O)[C@H]([C@@H](C)O)NC(=O)[C@H](CC(=O)O)NC(=O)[C@H](CO)NC(=O)[C@H](CCCNC(=N)N)N(C)C(=O)c2ccccc2CSC(C)(C)[C@@H](C(=O)N[C@@H](Cc2c[nH]c3ccccc23)C(=O)N[C@@H](CCC(=O)O)C(=O)N[C@H](CCCCN)C(N)=O)NC1=O [compound 146] (HELM PEPTIDE1{[meR].S.D.T.L.[Pen].W.E.[dK].[am]}|CHEM1{[O=C(c1ccccc1C[*:2])[*:1]]}$PEPTIDE1,CHEM1,1:R1-1:R1|PEPTIDE1,CHEM1,6:R3-1:R2$$$V2.0)
- IC50 [2, 4]: 25 to 100 nM

SMILES: CC(C)C[C@@H]1NC(=O)[C@H]([C@@H](C)O)NC(=O)[C@H](CC(=O)O)NC(=O)[C@H](CO)NC(=O)[C@H](CCCNC(=N)N)N(C)C(=O)c2ccccc2CSC(C)(C)[C@@H](C(=O)N[C@@H](Cc2c[nH]c3ccccc23)C(=O)N[C@@H](Cc2ccc(O)cc2)C(=O)N(C)[C@@H](CCCCN)C(N)=O)NC1=O [compound 153] (HELM PEPTIDE1{[meR].S.D.T.L.[Pen].W.Y.[meK].[am]}|CHEM1{[O=C(c1ccccc1C[*:2])[*:1]]}$PEPTIDE1,CHEM1,1:R1-1:R1|PEPTIDE1,CHEM1,6:R3-1:R2$$$V2.0)
- IC50 [2, 4]: 100 to 1000 nM

SMILES: CC(=O)N[C@H]1CSSC[C@@H](C(N)=O)NC(=O)[C@H](CC(C)C)NC(=O)[C@H]([C@@H](C)O)NC(=O)[C@H](CC(=O)O)NC(=O)[C@H](CO)NC(=O)[C@H](CCCNC(=N)N)NC1=O [compound 386] (HELM PEPTIDE1{[ac].C.R.S.D.T.L.C.[am]}$PEPTIDE1,PEPTIDE1,2:R3-8:R3$$$V2.0; bridges inferred)
- IC50 [1, 5]: 96.8 nM
- IC50 [2, 5]: 2880 nM
